Results published in the supplement of paper PMC11417369.
The other results are listed elsewhere or left out.

Test system: PfHDP1 homeodomain (GST-tagged)
Experiment: gcPBM binding intensity (ln(normalized median fluorescence intensity)); higher = stronger DNA binding
How it was run: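 Binding intensity values are the highest Masliner-normalised natural-log median intensity among replicate spots of either probe orientation. The binding step lasted 1 h in 1× PBS with 1% milk, 0.2 mg/ml BSA, 0.5% salmon testes DNA and 0.03% Triton X-100, using GST-tagged P. falciparum DNA-binding domains expressed in E. coli on an Agilent 4 × 180k array of primer-extended double-stranded 36-bp intergenic genomic probes plus negative controls. Alexa488 anti-GST antibody and a 488 nm scan detected bound protein.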

| Sequence | gcPBM binding intensity (ln) |
| --- | --- |
| CAAGCTTTTTCCTTTACACACATTAATTATATATAT [CACACA_site1423] | 7.42 |
| TGCAAAAAATTCCACACACACACACGCATATAAATA [CACACA_site6696] | 6.72 |
| TAAAATAAAAGTGAAACACACAGTATTTTACAACAT [CACACA_site3811] | 6.32 |
| AAAATAGCTGTATAGAGTACATATAAATAATGTTGT [XGTACX_site5692] | 6.21 |
| AGTGTGTGTAATAAAGTGCATTAAAAATGACACGTA | 9.52 |
| GTACATACATAAAACACACACATATAGATTTATATA [CACACA_site6945] | 6.5 |
| ATATATATTTAAACTACACACGCATATCTTAGAAAT [CACACA_site8348] | 6.69 |
| ACCCACTTTTGAGGTGTGCACAATAAATTGGACATT | 10.5 |
| AGGAAAAAAAAAATGACACACATATTTGAATTAAAA [CACACA_site1352] | 6.16 |
| TAAGAGATATTTTATTAAATGTTTTATGAATCATGT [TGCATGCA_negctrl_site264] | 5.57 |
| AAAAAAAAAAGACACACACACATATAAATATAAATA [CACACA_site6899] | 6.76 |
| TCAAACGGTTAAATATGTACATATATATATATATAT [XGTACX_site2339] | 9.07 |
| ACTCATAAAAATAGATGTACTTTAATAATTTGATTT [XGTACX_site8763] | 5.95 |
| AAGGAAATATAATATACACACATAAGTGTACTTCTA [CACACA_site6079] | 6.24 |
| TTTCAAACAAAAAGACGTACACTGAAGTTATCCGTC [XGTACX_site8824] | 6.19 |
| TTGTATTCATAACAACGTACATATTTTGTAACTAAA [XGTACX_site4029] | 6.26 |
| TATATATATAAACACACACACACCAAAGCGTAGCGC [CACACA_site7903] | 7.7 |
| TATTAATAAAAGCATTGTACAGTAATAAATAAATAA [XGTACX_site2924] | 6.66 |
| AGCCATTAATTCTCTACACACCTTTATGTTATTTAG [CACACA_site3635] | 6.8 |
| CAATCAAATAGACACACACACACCTAAACATAAAAG [CACACA_site7322] | 6.79 |
| ATATTAAAATGAAAATATAAAAAAAAAAAAAAAAAA [CACACA_negctrl_site1559] | 6.12 |
| CGCATGTATTTTGTGTGTACTAATTATAATCAACTT [XGTACX_site4709] | 6.62 |

| Sequence | gcPBM binding intensity (ln) |
| --- | --- |
| TTTTACATATACATGTGTACATAACAAAGAATGTTT [XGTACX_site2406] | 6.57 |
| AGTGTATTAATTCTCACACACTAAGAAAAAAAAAAA [CACACA_site6007] | 6.11 |
| TTTTTTAATAAATGGTGTACATATTTTTTTTATACT [XGTACX_site8584] | 6.49 |
| TAATATTGTATTTATGTACACACATTTTTGGAATAT [CACACA_site8371] | 6.48 |
| ATTCATAATATTATAACACACGCTTATTACATAAAG [CACACA_site980] | 6.89 |
| TGTATGTTTATTTGATGTACGGTCATACATATAAAT [XGTACX_site5176] | 6.44 |
| AAATTCATATGAATTTGTACGGACATAAATATCTTC [XGTACX_site1838] | 6.32 |
| TTTAATATTTTTTTTTGTACTTATTTGTAGAAATAT [XGTACX_site3046] | 6.48 |
| CTATTTTTTGTATAAACATGCATATAGTAGATATGG [TGCATGCA_site670] | 6.47 |
| AGGCTCATTTTTTTTAGTACATCAAAAAAAAAAAAA [TGCATGCA_negctrl_site591] | 6.29 |
| CCATAACTCATATGCACACATAAATATTACATATAT [CACACA_site3821] | 10.3 |
| TTTTAAAAAGAAAAAAATAACATACATATATATATA [CACACA_negctrl_site240] | 8.77 |
| ATTTTTTTTTTTTTTTTTTTTGAGAAGAACTTTTTC [CACACA_negctrl_site1019] | 5.91 |
| ATGTCTACAGTTTTTGCACACATATAAATAAAAAAA [CACACA_site3600] | 10.3 |
| AAACATCATAAATATACACACATATTTATATTTATA [CACACA_site6437] | 6.66 |
| AGATGGAGAAAGTTATGTACACATATATAAATATGT [XGTACX_site6150] | 6.29 |
| CCCATGTAATGAACATGTACATAATAATTTATAAAT [XGTACX_site8687] | 7.31 |
| ATATATATATATATGTGTACATATGTATATATATCT [XGTACX_site2930] | 9.27 |
| TATATACATATGTGATGTACATTTTTTGTAATATAA [XGTACX_site6985] | 6.61 |
| TAACACATATATTGTTGTACATTCAAACTGAAAAAT [XGTACX_site5565] | 6.62 |
| TTTTTTTTATTAAAAAGTACTAAACAAATTATATAT [XGTACX_site121] | 6.37 |
| TTGTGAAATAAAATTTGTACACACATATATATATAT [XGTACX_site1078] | 9.17 |

| Sequence | gcPBM binding intensity (ln) |
| --- | --- |
| AAAATTTAAAGCATGACACACAATTATATTATGTGC [CACACA_site3435] | 5.96 |
| TTCTTTTCTTTAGTAGAATGTAAAAAATATAATCTT [XGTACX_negctrl_site290] | 6.03 |
| TTTTTTTTGGAATTCACACAAATATAACATGGGTAT [CACACA_site5185] | 6.57 |
| TACACAAGGGGAAAAATATATATATATATATATATA [TGCATGCA_negctrl_site217] | 9.34 |
| TAAAAGTATATATATACACACATAAATATATATGTA [CACACA_site663] | 6.71 |
| TAAAAAATTTTATATTCACACACATATATATATATA [CACACA_site8109] | 9.22 |
| TTTTCATTCAATTATATTTATATATATATATATATA [GTGCAC_negctrl_site538] | 9.21 |
| CAAAATATTTTTATAACACACATATATATAATGTGC [CACACA_site4767] | 6.52 |
| TACATGTATAAATAAGCACACATGTGGATATGTACA [CACACA_site93] | 6.64 |
| ACTTATATATTATGTTGTCCGTCCATTCTCTTTATC [XGTACX_site3769] | 6.96 |
| AATTTTATTTAATTTTTTTGGGAAATGATAAAATTT [CACACA_negctrl_site934] | 5.8 |
| ACGTGTGATTATAATTGTACTTTAATGTAAGAATGA [XGTACX_site1109] | 6.53 |
| ATATATATATATATATGTACTTATAATAATATTCAA [XGTACX_site2593] | 9.32 |
| ATCTTTCCTATTTGTAGTACAAAAAAAAAAAAAAAA [XGTACX_site5485] | 6.37 |
| TATTGTCTATAATAAACACACAATATTAAAAATATA [CACACA_site6624] | 6.19 |
| TTAAATGATGTAAACACACACATATACATTATTATA [CACACA_site3162] | 6.53 |
| TTTTATAAGGTGAAAAGTACATATAACTTATTTTAC [XGTACX_site5572] | 6.39 |
| AAAAAAAAAAAAAAAACACACATACATACATACATA [CACACA_site6125] | 6.8 |
| AGAAAAGTGATATATACACACTTATATTTATTTATA [CACACA_site7350] | 6.26 |
| TTTTTTTTTTTTTTTGCACACACCATATTTATAGAA [CACACA_site3310] | 8.81 |
| TATTGTTACTTTATATGTACTAATTAAACATATACA [XGTACX_site6363] | 6.5 |
| TTGTATTATATTGTATTATGTTTAAATGAAAAAAAA [CACACA_negctrl_site662] | 6.46 |

| Sequence | gcPBM binding intensity (ln) |
| --- | --- |
| AAAAAAAAAAAAAAAAGTACACAAATTTTAAAAATT [XGTACX_site3006] | 6.33 |
| AAAAATACCTTATATATACACACTATGTTTTTCTTT [CACACA_site1192] | 6.59 |
| AAATATTAGTAACACAGACACACAAAAAAAAAAAAA [CACACA_site2175] | 6.17 |
| CAAAAGAAGGTAAACACACACACACGCATACAAAAA [CACACA_site7724] | 6.78 |
| ATTTCTCTATCGTAATGTACATAAAAAATGAAAAAA [XGTACX_site1201] | 6.8 |
| CAAAACCTTATATGTACACACATATACATCACCCTT [CACACA_site3170] | 6.6 |
| ATAGAATAAAACTATACACACCTATATTTAAACATA [CACACA_site5106] | 6.62 |
| TGTTTATTTTTAAAAAGTACATATTTAAAAAACTTC [XGTACX_site271] | 6.26 |
| TTTTCTAAATAAATAGTGCATTTATTATATATACAT [GTGCAC_site9766] | 8.43 |
| TGATCAGATAGACACACACACAAAAAAAAAAAAAAA [CACACA_site7805] | 6.4 |
| AAATGAATAAATAAGACACACACGAAAATAAGTAAA [CACACA_site71] | 7.1 |
| AAATATATATATATATATATATATATATATATATAT [CACACA_negctrl_site677] | 9.37 |
| AATTACTACATAAATACATGCATAATTATATATATA [TGCATGCA_site783] | 7.15 |
| TATCTCTTCATATTGTGTACATATTTTTATTTATTG [XGTACX_site4038] | 7.33 |
| ATAAAATATAAAAATTGTACGATAATAATAGTAGGA [XGTACX_site8951] | 6.48 |
| AACACTTCTTATTTATGTACTTAATTCCCAACGGAA [XGTACX_site4818] | 6.89 |
| CATAATACATATAACACACACAATTATACATAAAAT [CACACA_site3233] | 6.82 |
| AAAAAAAAAAAACACACACACACACCCAAATATATA [CACACA_site150] | 6.84 |
| TATATTAAACTTTGCACACATAATTTAACTACAAAG [CACACA_site3441] | 10.5 |
| AATCATTTATTGATGGTGCAATATACCATCTAATGA [GTGCAC_site9440] | 9.92 |
| AAAAAAAAAAAAAAAAAAAAAAAAAAAATACGAAAG [GTGCAC_negctrl_site729] | 7.21 |
| ATATATATATATATATGTACTTAAAAAATATATACA [XGTACX_site8952] | 9.4 |
